A number of entries come with more than one value. They are shown here; other results are not. The source may hold further records. Results that share an entry appear to be repeats (runs, samples, wells or individuals).
Biological target: KRAS G12D (Homo sapiens (Human), UniProt P01116, G12D)
Assay: KRAS G12D LoEnz Biochemical Assay, BODIPY-GDP Exchange TR-FRET (SOS1-mediated nucleotide exchange)
Settings: read-out: KRas (G12D) GDP HTRF IC50
Method: Example 500: KRAS G12D LoEnz Biochemical Assay, BODIPY-GDP Exchange TR-FRET. Biochemical compound potencies are assessed by evaluating inhibition of SOS1I-mediated nucleotide exchange in KRAS G121D. In this assay, the SOS1-promoted exchange of fluorescently-labeled GDP (BOPIDY-GDP) is monitored by time-resolved fluorescence resonance energy transfer (TR-FRET). Compounds solubilized in DMS0 are dispensed as concentration series into 384-well white assay plates. A preformed complex of biotin-tagged recombinant human KRAS (0.06 nM mutant G1 2D) and 0.06 nM terbium-labeled streptavidin (CisBIO) prepared in 10 uL/well assay buffer (20 mM HEPES, pH 7.5, 50 mM NaCl, 10 mMMMgCl2, 0.0100 Tween-20 and 1 mM dithiothreitol) is added and allowed to incubate for 10-minutes at room temperature. The reaction is initiated with the addition of 5 uL 300 nM recombinant human SOS1 and 300 nM BODIPY-GDP in assay buffer. After a 120-minute incubation, the fluorescence is measured with excitation at 337 nm and emission at 490 and 520 nm. The TR-FRET ratio is determined as the fluorescence at 520 nm divided by the fluorescence at 490 nm multiplied by 10,000. The results are normalized to percent inhibition based on control samples: DMSO (0% inhibition) and control compound at a concentration that inhibits completely (100% inhibition). […]

KRAS G12D, sequence (P01116-2 other isoform, or with tags, fused parts or gaps G12D): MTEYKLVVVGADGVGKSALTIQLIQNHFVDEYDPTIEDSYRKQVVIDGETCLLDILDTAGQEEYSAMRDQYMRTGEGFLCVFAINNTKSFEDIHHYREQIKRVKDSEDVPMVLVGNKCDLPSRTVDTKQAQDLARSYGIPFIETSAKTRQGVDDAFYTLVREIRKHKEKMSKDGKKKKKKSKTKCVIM

Compound: C[C@@H]1Oc2nc(-c3c(Cl)c(N)c(F)c(F)c3C(F)(F)F)c(F)c3nc(OC[C@@]45CCCN4C[C@H](F)C5)nc(c23)N2C[C@H]3CC[C@H](N3)[C@@H]12 (atropisomer, axis not shown; (aS)) [Compound 106, 2-Chloro-5,6-difluoro-3-((5S,5aS,6S,9R)-1-fluoro-12-(((2R,7aS)-2-fluorotetrahydro-1H-pyrrolizin-7a(5H)-yl)methoxy)-5-methyl-5a,6,7,8,9,10-hexahydro-5H-4-oxa-3,10a,11,13,14-pentaaza-6,9-methanonaphtho[1,8-ab]heptalen-2-yl)-4-(trifluoromethyl)aniline]
- IC50: 1.89 nM and 0.18 nM [lines of one column]

Reference: patent US20240025919A1, “AZA-TETRACYCLIC OXAZEPINE COMPOUNDS AND USES THEREOF” (Genentech, Inc., priority 2022, published 2024)
